# PubChem BioAssay (NCATS)
# Inconclusive means that the source gave no clear call. Such entries were picked first, then a sample of the others. For part of these data: Potencies of inconclusive entries are doubtful fits and often do not repeat. Active and inactive are the calls of the source. Unless noted, calls come from the whole dose curve; as a rule, active = well fitted curve in the direction sought with a large enough effect; inconclusive = small, poorly fitted or top-dose-only effect, or another doubt; inactive = no such curve, though single readings can be large; an effect the other way counts as inactive or inconclusive.
# Tests used:
# [1] = target: 3',5'-cyclic-AMP phosphodiesterase 4B (Homo sapiens) (UniProt Q07343); experiment: qHTS Assay for Inhibitors of PDE-IV (AID 607; active = well fitted activation curve with a large enough effect in the main read-out, with a control signal flat, not every such curve was filed as active; inconclusive = small, poorly fitted or top-dose-only effect, or effect the other way, or a change in a side signal; note: potency is the fitted concentration of half-maximal effect; for activation (PDE inhibition): % of control where 0% means no effect); conditions: HEK293 ACTOne CNG channel cells, membrane potential fluorescence; activation (PDE inhibition): at 22.9 µM (top of the series)
# Procedure, shortened: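 The readout is membrane depolarisation from a cAMP-sensing CNG channel, detected with a potential dye at ex 535/em 590. Cells were HEK293-derived (endogenous PDE-IV) at 1000 cells/well, titrated up to 22.9 uM final.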
# [2] = target: Dual specificity protein kinase CLK4 (Homo sapiens) (UniProt Q9HAZ1); experiment: qHTS Assay for Inhibitors of CDC-like Kinase 4 (Kinase-Glo Assay) (AID 1770); note: nearly all actives have a fitted effect of over 65% in size; note: potency is the fitted concentration of half-maximal effect
# Procedure, shortened: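 Readout: Kinase-Glo luminescence from ATP left after a 4.5 h room-temperature reaction of 25 nM Clk4 with 100 uM RS peptide and 1 uM ATP (final). Buffer: 25 mM Tris pH 7.5, 10 mM MgCl2.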
# [3] = target: Dual specificity protein kinase CLK4 (Homo sapiens) (UniProt Q9HAZ1); experiment: qHTS Assay for Inhibitors of CDC-like Kinase 4 (ADP-Glo Assay) (AID 1771); note: potency is the fitted concentration of half-maximal effect; nearly all actives have a fitted effect of over 70% in size
# Procedure, shortened: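 Compounds are pin-transferred onto substrate mix (100 uM RS peptide, 1 uM ATP), then 25 nM Clk4 is added. After 1 hr at room temperature, ADP-Glo reagent runs 45 min, detection reagent 30 min, then luminescence is read.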
# [4] = target: Ubiquitin carboxyl-terminal hydrolase 1 (Homo sapiens) (UniProt O94782); experiment: Inhibitors of USP1/UAF1: Pilot qHTS (AID 504865); note: potency is the fitted concentration of half-maximal effect;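 note: rhodamine fluorescence freed from ubiquitin-rhodamine substrate followed over time; nearly all actives have a fitted effect of over 35% in size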; for activity change, negative = inhibition: top concentration of the series differs between compounds; % is set by controls: 0 for no effect and ±100 for the full control effect
# Procedure, shortened: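 1nM USP1/UAF1 + cpd, 15 min RT; start w/ Ub-Rho 150nM final; kinetic FL 480/540 nm, 6 reads q60 s. Buffer 50mM HEPES pH 7.8, 0.5mM EDTA, 1mM TCEP, 0.01% Tween-20, 0.1 mg/ml BSA.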
# [5] = Primary qHTS for small molecule stabilizers of the endoplasmic reticulum resident proteome: Secreted ER Calcium Modulated Protein (SERCaMP) assay (AID 1508630); conditions: SH-SY5Y GLuc-SERCaMP (Gaussia luciferase released on ER calcium loss) secretion, thapsigargin, luminescence; activity change, negative = inhibition: at 38.4 µM (top of the series) unless noted; note: potency is the fitted concentration of half-maximal effect
# Procedure, shortened: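 The SH-SY5Y reporter protocol was run at 3 concentrations up to 38.3 uM (primary) or 11 concentrations (follow-up): 16 h compound, 100 nM thapsigargin for 4 h, then extracellular luciferase luminescence.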
# [6] = NFAT Signaling Pathway (AID 444; active = well fitted curve in either direction with a large enough effect, not every such curve was filed as active; inconclusive = small, poorly fitted or top-dose-only effect, or another doubt;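 note: carbachol stimulus at about its EC50 of 1 µM final; % is set by controls: 0 for no effect and ±100 for the full control effect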); conditions: Jurkat NFAT-bla M1, carbachol, beta-lactamase ratio, 5 h; at 7.69 µM (top of the series) unless noted
# Procedure, shortened: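 Jurkat cells carrying an NFAT-driven β-lactamase reporter and co-transfected muscarinic M1 receptor were treated with compound plus carbachol (1 uM final, an EC50 level) for 5 h at 37 °C. CCF4 loading followed for 1 h at RT; 460/530 nm ratio gave %activity.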
# [7] = target: Cytochrome P450 2C19 (Homo sapiens) (UniProt P33261); experiment: qHTS Assay for Inhibitors and Substrates of Cytochrome P450 2C19 (AID 899); note: potency is the fitted concentration of half-maximal effect; nearly all actives have a fitted effect of over 60% in size
# Procedure, shortened: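 In 50mM KPO4, the reaction held 5nM enzyme and KM-level (10uM) Luciferin-H EGE; it ran 60 min at 37C after NADPH regeneration and a 10 min compound preincubation. Luminescence values were scaled to 57uM ketoconazole as complete inhibition.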
# [8] = AP1 Signaling Pathway (AID 357; active = well fitted curve in either direction with a large enough effect, not every such curve was filed as active; inconclusive = small, poorly fitted or top-dose-only effect, or another doubt;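 note: ME-180 reporter cells stimulated with EGF at its EC50 level; top concentration of the series differs between compounds; % is set by controls: 0 for no effect and ±100 for the full control effect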); conditions: ME-180 AP-1-bla reporter, EGF-induced, beta-lactamase ratio, 5 h; at 7.69 µM (top of the series) unless noted
# Procedure, shortened: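 Titration-series screen for positive or negative modulators of EC50 EGF-induced signaling in ME-180 cells carrying an AP-1-driven beta-lactamase reporter. After 5 hours at 37 degrees Celsius, CCF4 460nm/530nm emission ratio gave %Activity; AC50 values derived.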
# [9] = Stat Signaling Pathway (AID 446; active = well fitted curve in either direction with a large enough effect, not every such curve was filed as active; inconclusive = small, poorly fitted or top-dose-only effect, or another doubt;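 note: ME-180 cervical cancer cells given 40 pM IL-6 alongside compound; SIE-controlled beta-lactamase reporter measured as 460/530 nm FRET emission ratio; top concentration of the series differs between compounds; % is set by controls: 0 for no effect and ±100 for the full control effect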); conditions: ME-180 SIE beta-lactamase reporter, IL-6 stimulated, 5 h; at 7.69 µM (top of the series) unless noted
# Procedure, shortened: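 Emission at 460 and 530 nm (excitation 405 nm) reports SIE-controlled beta-lactamase in ME-180 cells. Cells received compound with 40 pM IL-6 for 5 hrs at 37 C; data scaled between 300 pM IL-6 and 125 nM JAK-inhibitor controls.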
# [10] = target: Mitogen-activated protein kinase 10 (Mus musculus) (UniProt Q61831); experiment: JNK3 AlphaScreen Assay (AID 530; active = well fitted curve in either direction with a large enough effect, not every such curve was filed as active; inconclusive = small, poorly fitted or top-dose-only effect, or another doubt;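 note: kinase came from lysate of stimulated human HepG2 cells; signal reports phosphorylation of biotinylated GST-cJun 1-79 at Ser73 with 10 µM ATP; potency is the fitted concentration of half-maximal effect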); conditions: JNK3 lysate, c-Jun phosphorylation; activity change, negative = inhibition: at 57.1 µM (top of the series)
# Procedure, shortened: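 Phosphorylation of biotinylated GST-cJun(1-79) at Ser73 is measured by AlphaScreen proximity luminescence. Enzyme is JNK3 in HepG2 lysates activated with interleukin-1beta and tumor necrosis factor alpha; ATP is 10 uM final.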
# [11] = qHTS Assay for Identification of Small Molecule Agonists for Hypoxia Response Element Signaling Pathway (AID 914; active = well fitted activation curve with a large enough effect in the signal ratio, with a control signal flat, not every such curve was filed as active; inconclusive = small, poorly fitted or top-dose-only effect, or effect the other way, or a change in a side signal; the % refers to the signal ratio; note: potency is the fitted concentration of half-maximal effect; for activation: top concentration of the series differs between compounds; % of control where 0% means no effect); conditions: ME-180 (cervical carcinoma) HRE-bla reporter, beta-lactamase ratio, CoCl2, 17 h; activation: hits give high values
# Procedure, shortened: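 Cells were plated overnight, pin-dosed with compound in a titration series, co-stimulated with EC50 CoCl2 and incubated 17 hours at 37 degrees Celsius. CCF4 substrate was then loaded, and AC50 values came from the 460nm/530nm ratio.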
# [12] = target: Dual specificity protein kinase CLK4 (Homo sapiens) (UniProt Q9HAZ1); experiment: qHTS Assay for Inhibitors of CDC-like Kinase 4 (ADP-FP Assay) (AID 1795);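 note: recombinant human CLK4 phosphorylating RS repeat peptide at 1 µM ATP; potency is the fitted concentration of half-maximal effect; nearly all actives have a fitted effect of over 60% in size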
# Procedure, shortened: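 FP readout: Orange Transcreener ADP2 tracer (4 nM) plus ADP antibody, read after 30 min at room temperature. Kinase step: 6.25 nM Clk4, 100 uM RS peptide, 1 uM ATP, pH 7.5, 1 h.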
# [13] = target: Cytochrome P450 2C9 (Homo sapiens) (UniProt P11712); experiment: qHTS Assay for Inhibitors and Substrates of Cytochrome P450 2C9 (AID 883); note: potency is the fitted concentration of half-maximal effect; nearly all actives have a fitted effect of over 60% in size
# Procedure, shortened: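 CYP2C9 deoxyluciferin hydroxylation, 37C, 60 min with NADPH regeneration; 10nM enzyme, 100uM Luciferin-H (KM). Glo detection reagent stopped reaction; luminescence normalized to sulphaphenazole (57uM) full inhibition.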
# [14] = target: Glucocorticoid receptor (Homo sapiens) (UniProt P04150); experiment: GR-GFP Redistribution (AID 450;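 active = compounds whose dose series gives a full or clear partial fitted curve of increased nuclear translocation; inconclusive = weak partial curve or effect only at the top dose; inactive = no dose-dependent translocation response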; note: potency is the fitted concentration of half-maximal effect); conditions: U2OS GR-GFP nuclear translocation, laser cytometry, 2 h
# Tags give direction and shape of the fitted curve or compound fluorescence and quenching.
# UniProt O94782, sequence (O94782 whole entry, looked up): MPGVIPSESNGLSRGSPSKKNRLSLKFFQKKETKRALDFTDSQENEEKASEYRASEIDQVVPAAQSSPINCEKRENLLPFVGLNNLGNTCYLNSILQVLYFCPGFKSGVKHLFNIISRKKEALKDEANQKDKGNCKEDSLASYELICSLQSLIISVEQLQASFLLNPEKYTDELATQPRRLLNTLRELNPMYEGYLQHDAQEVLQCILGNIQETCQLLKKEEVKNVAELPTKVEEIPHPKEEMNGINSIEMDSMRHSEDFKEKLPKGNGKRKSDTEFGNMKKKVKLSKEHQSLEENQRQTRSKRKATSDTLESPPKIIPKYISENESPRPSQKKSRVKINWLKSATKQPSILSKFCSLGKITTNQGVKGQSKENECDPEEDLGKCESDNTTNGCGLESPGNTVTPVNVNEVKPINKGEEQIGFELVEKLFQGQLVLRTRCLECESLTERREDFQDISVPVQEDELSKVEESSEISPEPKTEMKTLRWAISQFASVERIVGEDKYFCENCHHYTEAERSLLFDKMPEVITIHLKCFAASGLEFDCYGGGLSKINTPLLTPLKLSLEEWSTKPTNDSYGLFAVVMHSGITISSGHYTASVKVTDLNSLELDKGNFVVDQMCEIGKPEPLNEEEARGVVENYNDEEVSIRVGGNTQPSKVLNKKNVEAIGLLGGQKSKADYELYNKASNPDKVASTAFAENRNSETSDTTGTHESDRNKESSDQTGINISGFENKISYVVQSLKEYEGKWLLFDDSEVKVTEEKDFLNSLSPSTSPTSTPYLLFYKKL
# UniProt Q9HAZ1, sequence (Q9HAZ1 whole entry, looked up): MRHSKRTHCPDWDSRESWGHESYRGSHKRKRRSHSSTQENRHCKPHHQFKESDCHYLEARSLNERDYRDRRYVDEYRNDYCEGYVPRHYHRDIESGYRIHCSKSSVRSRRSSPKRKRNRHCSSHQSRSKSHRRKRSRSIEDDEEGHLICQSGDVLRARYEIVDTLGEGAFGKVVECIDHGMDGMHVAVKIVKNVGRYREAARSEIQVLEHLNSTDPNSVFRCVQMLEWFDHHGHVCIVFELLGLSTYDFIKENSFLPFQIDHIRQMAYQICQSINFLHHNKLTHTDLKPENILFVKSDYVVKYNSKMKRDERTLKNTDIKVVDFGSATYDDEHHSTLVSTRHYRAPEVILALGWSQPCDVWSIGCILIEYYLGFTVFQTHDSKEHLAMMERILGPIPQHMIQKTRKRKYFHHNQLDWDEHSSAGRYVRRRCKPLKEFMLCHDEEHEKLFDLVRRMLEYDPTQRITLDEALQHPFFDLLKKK
# UniProt P11712, sequence (P11712 whole entry, looked up): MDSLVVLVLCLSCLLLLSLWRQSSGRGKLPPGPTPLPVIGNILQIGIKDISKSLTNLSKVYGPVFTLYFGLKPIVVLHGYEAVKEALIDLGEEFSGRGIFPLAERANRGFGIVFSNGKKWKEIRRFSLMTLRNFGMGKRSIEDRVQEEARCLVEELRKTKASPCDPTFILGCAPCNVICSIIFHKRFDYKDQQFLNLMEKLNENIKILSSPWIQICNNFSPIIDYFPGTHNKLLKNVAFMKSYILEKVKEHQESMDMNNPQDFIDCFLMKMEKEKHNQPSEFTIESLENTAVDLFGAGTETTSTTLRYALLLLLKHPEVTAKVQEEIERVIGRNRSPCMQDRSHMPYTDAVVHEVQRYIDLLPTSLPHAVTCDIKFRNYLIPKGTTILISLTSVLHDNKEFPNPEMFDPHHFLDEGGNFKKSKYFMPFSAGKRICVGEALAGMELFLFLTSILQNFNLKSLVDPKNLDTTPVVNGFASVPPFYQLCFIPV
# UniProt Q07343, sequence (Q07343 whole entry, looked up): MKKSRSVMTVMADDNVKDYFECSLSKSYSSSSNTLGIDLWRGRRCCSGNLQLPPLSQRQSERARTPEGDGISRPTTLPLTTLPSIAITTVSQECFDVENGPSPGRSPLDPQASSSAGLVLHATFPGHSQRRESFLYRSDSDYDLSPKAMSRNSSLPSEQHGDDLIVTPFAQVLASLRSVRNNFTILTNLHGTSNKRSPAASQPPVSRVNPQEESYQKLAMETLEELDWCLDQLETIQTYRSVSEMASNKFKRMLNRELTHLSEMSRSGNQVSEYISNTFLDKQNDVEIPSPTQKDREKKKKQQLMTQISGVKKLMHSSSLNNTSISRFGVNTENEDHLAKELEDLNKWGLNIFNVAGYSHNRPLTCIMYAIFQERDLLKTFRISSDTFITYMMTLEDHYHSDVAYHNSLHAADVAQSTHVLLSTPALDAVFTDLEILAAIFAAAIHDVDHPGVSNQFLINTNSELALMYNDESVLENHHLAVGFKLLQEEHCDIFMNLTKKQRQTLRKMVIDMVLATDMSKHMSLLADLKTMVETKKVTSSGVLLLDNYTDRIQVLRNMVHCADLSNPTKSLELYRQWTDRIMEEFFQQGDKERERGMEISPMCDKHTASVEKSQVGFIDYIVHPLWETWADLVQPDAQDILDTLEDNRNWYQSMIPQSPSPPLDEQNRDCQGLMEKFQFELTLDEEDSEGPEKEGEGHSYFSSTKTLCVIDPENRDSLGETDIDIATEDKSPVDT
# UniProt P33261, sequence (P33261 whole entry, looked up): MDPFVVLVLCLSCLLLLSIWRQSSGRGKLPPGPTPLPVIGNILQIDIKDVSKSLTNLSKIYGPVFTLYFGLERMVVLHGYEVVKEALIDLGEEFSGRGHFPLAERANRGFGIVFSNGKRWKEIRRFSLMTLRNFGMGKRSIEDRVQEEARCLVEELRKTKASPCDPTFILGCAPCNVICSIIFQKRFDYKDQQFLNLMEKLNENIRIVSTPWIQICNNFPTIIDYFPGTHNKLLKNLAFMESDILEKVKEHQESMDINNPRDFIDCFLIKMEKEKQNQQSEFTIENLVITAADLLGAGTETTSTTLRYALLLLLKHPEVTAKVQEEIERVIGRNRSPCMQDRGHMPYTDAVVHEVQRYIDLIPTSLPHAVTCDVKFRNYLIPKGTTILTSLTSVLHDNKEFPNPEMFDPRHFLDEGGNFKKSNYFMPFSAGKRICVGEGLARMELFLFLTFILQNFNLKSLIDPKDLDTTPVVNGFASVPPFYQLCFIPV
# UniProt P04150, sequence (P04150 whole entry, looked up): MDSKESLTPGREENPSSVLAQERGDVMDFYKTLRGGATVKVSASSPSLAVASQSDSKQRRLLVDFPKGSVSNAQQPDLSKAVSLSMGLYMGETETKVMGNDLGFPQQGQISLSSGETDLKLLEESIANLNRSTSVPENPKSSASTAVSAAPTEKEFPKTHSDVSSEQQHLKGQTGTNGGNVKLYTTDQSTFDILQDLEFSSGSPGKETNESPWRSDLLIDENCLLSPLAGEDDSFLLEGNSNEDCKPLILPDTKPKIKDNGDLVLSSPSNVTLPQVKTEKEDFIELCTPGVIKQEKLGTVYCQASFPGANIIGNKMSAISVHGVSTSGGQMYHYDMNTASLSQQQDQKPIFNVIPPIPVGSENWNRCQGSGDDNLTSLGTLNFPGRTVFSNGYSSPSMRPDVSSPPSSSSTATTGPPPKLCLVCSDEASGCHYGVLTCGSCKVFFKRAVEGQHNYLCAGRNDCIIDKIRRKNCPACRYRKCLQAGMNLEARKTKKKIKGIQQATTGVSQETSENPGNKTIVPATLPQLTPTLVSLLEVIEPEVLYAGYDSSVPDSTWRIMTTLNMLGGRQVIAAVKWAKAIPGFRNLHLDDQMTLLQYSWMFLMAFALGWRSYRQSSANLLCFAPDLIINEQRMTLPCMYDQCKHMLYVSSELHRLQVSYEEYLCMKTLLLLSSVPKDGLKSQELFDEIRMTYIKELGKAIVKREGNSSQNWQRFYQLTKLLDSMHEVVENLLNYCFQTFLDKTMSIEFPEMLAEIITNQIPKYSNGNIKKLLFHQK
smiles,measurement,setting,value
c1ccc(Nc2nc(-c3ccoc3)nc3ccccc23)cc1,Potency,[1],"inconclusive: 12.6 µM [activator, partial curve]"
same,Potency,[2],"inconclusive: 25.1 µM [falling, partial curve]"
same,Potency,[3],"inconclusive: 17.8 µM [falling, partial curve]"
same,Potency,[4],"inconclusive: 28.2 µM [inhibitor, partial curve, poor fit]"
same,Potency,[5],"inconclusive: 31.6 µM [inhibitor, single point]"
FC(F)(F)c1ccccc1-c1ccc2ncnc(NCc3cccs3)c2c1,"activity change, negative = inhibition",[6],inconclusive: -60.2% [inhibitor]
same,Potency,[1],"inconclusive: 10 µM [rising, partial curve]"
same,Potency,[7],active: 3.16 µM
same,Potency,[2],"inconclusive: 22.4 µM [falling, single point]"
same,Potency,[3],"inconclusive: 35.5 µM [falling, partial curve]"
same,Potency,[4],inactive
same,Potency,[5],"inconclusive: 28.2 µM [inhibitor, single point]"
COc1ccccc1CNc1cc(-c2cccc(C#N)c2)ncn1,"activity change, negative = inhibition",[6],inactive: 17.8%
same,Potency,[1],inactive
same,Potency,[7],"inconclusive: 6.31 µM [inhibitor, full curve, poor fit]"
same,Potency,[2],"inconclusive: 20 µM [falling, partial curve]"
same,Potency,[3],"inconclusive: 31.6 µM [falling, partial curve]"
same,Potency,[5],"inconclusive: 31.6 µM [inhibitor, single point]"
COc1cccc(Cn2c(=O)c(-c3ccccc3)nc3cnc(N4CCN(C)CC4)nc32)c1,"activity change, negative = inhibition",[8],inconclusive: 32.3% [activator]
same,"activity change, negative = inhibition",[6],inconclusive: 67.2% [activator]
same,"activity, negative = inhibition",[9],inconclusive: 47.9% [activator]
same,Potency,[10],"inconclusive: 12.6 µM [activator, partial curve]"
same,Potency,[11],active: 3.16 µM
same,Potency,[2],inactive
same,Potency,[5],"inconclusive: 25.1 µM [inhibitor, single point]"
COc1ccc2[nH]cc(CCNc3ncncc3-c3cccc(C#N)c3)c2c1,Potency,[2],"inconclusive: 39.8 µM [falling, single point]"
same,Potency,[12],"inconclusive: 20 µM [falling, single point]"
same,Potency,[5],"inconclusive: 12.6 µM [inhibitor, single point]"
CN(C)c1nc(-c2cccc(NS(C)(=O)=O)c2)nc2ccccc12,"activity change, negative = inhibition",[6],inactive: 10.8%
same,Potency,[1],"inconclusive: 6.31 µM [activator, partial curve, poor fit]"
same,activation,[11],inactive: 22.5%
same,Potency,[2],"inconclusive: 31.6 µM [falling, partial curve]"
same,Potency,[3],"inconclusive: 28.2 µM [falling, single point]"
same,Potency,[5],"inconclusive: 28.2 µM [inhibitor, single point]"
O=c1c(-c2ccc(F)cc2)nc2cncnc2n1Cc1ccccc1,"activity change, negative = inhibition",[8],inactive: -5.88%
same,Potency,[1],"inconclusive: 3.16 µM [activator, single point]"
same,Potency,[2],inactive
same,Potency,[4],inactive
same,Potency,[5],inactive
Cc1ccccc1-c1ccc2ncnc(-n3ccnc3)c2c1,"activity change, negative = inhibition",[8],inconclusive: -32.6% [inhibitor]
same,"activity change, negative = inhibition",[6],inconclusive: -61.2% [inhibitor]
same,"activity, negative = inhibition",[9],inconclusive: -42% [inhibitor]
same,Potency,[1],"inconclusive: 10 µM [activator, single point]"
same,Potency,[13],"inconclusive: 0.794 µM [inhibitor, single point]"
same,Potency,[2],active: 7.94 µM
same,Potency,[5],"inconclusive: 10 µM [inhibitor, partial curve, poor fit]"
COCCn1c(=O)c(-c2cccs2)nc2cnc(N3CCNCC3)nc21,"activity change, negative = inhibition",[8],inconclusive: 82.2% [activator]
same,"activity change, negative = inhibition",[6],inconclusive: 97.2% [activator]
same,"activity, negative = inhibition",[9],inconclusive: 142% [activator]
same,Potency,[14],inconclusive: 9.35 µM [single point]
same,Potency,[13],active: 2 µM
same,Potency,[11],"inconclusive: 3.16 µM [fluorescent, partial curve]"
same,Potency,[2],"inconclusive: 39.8 µM [falling, partial curve]"
same,Potency,[5],"inconclusive: 6.31 µM [inhibitor, partial curve, poor fit]"
COc1ccccc1CNc1nc(-c2cccc(NS(C)(=O)=O)c2)nc2ccccc12,Potency,[1],"inconclusive: 12.6 µM [rising, single point]"
same,Potency,[2],"inconclusive: 22.4 µM [falling, partial curve]"
same,Potency,[3],"inconclusive: 17.8 µM [falling, partial curve]"
same,Potency,[5],"inconclusive: 10 µM [inhibitor, single point]"
N#Cc1cccc(-c2ccc3ncnc(NCc4ccccc4)c3c2)c1,"activity change, negative = inhibition",[8],inconclusive: -114% [inhibitor]
same,"activity change, negative = inhibition",[6],inconclusive: -45.9% [inhibitor]
same,Potency,[1],"inconclusive: 12.6 µM [activator, single point]"
same,Potency,[13],"inconclusive: 0.631 µM [inhibitor, partial curve]"
same,Potency,[11],"inconclusive: 1.26 µM [inhibitor, partial curve]"
same,Potency,[2],"inconclusive: 3.98 µM [falling, full curve]"
same,Potency,[4],active: 15.8 µM
same,Potency,[5],"inconclusive: 28.2 µM [inhibitor, single point]"
